Results from the supplement of paper PMC4967469.
A lower IC50 marks a more sensitive line; a limit (>, <) means that the fit lies beyond the doses tested. The AUC spans the tested range (256-fold, ending at the top dose) of the same fit: 1 means no effect, lower means more sensitive. A top dose marked as inferred is not printed in the source and was worked back from the curve model. For some assays here: Where an entry number is given, a second screen of the drug exists; the two often differ.

How the values were obtained:
Assay in all cases: Viability of human cancer cell lines after 72 h of drug (GDSC screen)
BMN-673 = compound: Cn1ncnc1[C@H]1c2n[nH]c(=O)c3cc(F)cc(c23)N[C@@H]1c1ccc(F)cc1 [BMN-673]; conditions: top dose 10 µM; top dose inferred
Method: (§1)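 Human cancer cell lines in 384-well plates, medium with 10% serum, drug for 72 h over a 256-fold dose range (nine 2-fold or five 4-fold steps up to the top dose). Adherent lines were fixed and stained with the nucleic acid dye Syto60, suspension lines read with resazurin; signal relative to control wells, capped at 0 and 100%. One two-parameter sigmoid per drug and line, fitted in a mixed model over all curves with the slope shared within a line.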

AZD6482 = compound: Cc1cc([C@@H](C)Nc2ccccc2C(=O)O)c2nc(N3CCOCC3)cc(=O)n2c1 [AZD6482]
Method: as §1

MLN4924 = compound: NS(=O)(=O)OC[C@@H]1C[C@@H](n2ccc3c(N[C@H]4CCc5ccccc54)ncnc32)C[C@@H]1O [MLN4924]; conditions: top dose 1 µM; top dose inferred
Method: as §1

[1] = top dose 5 µM, screen: GDSC drug entry 1066, top dose inferred
[2] = top dose 5.12 µM, screen: GDSC drug entry 156

Row | Cell Line | AUC (BMN-673) | IC50 (BMN-673) | AUC (AZD6482; [1]) | IC50 (AZD6482; [1]) | AUC (AZD6482; [2]) | IC50 (AZD6482; [2]) | AUC (MLN4924) | IC50 (MLN4924)
1 | HuO-3N1 (osteosarcoma, adherent) | 0.889 | > 10000 nM | 0.844 | > 5000 nM | 0.792 | 3190 nM | 0.966 | > 1000 nM
2 | IGR-37 (melanoma, adherent) | 0.789 | 4000 nM | 0.83 | 2770 nM | 0.792 | 2100 nM | 0.85 | 658 nM
3 | IGROV-1 (ovary, adherent) | 0.764 | 5410 nM | 0.769 | 2840 nM | – | – | 0.946 | > 1000 nM
4 | IM-9 (myeloma, suspension) | 0.781 | 3560 nM | 0.988 | > 5000 nM | 0.991 | > 5120 nM | 0.734 | 259 nM
5 | IMR-5 (neuroblastoma, adherent) | 0.487 | 579 nM | 0.988 | > 5000 nM | 0.992 | > 5120 nM | 0.945 | > 1000 nM
6 | IPC-298 (melanoma, adherent) | 0.921 | > 10000 nM | 0.61 | 623 nM | 0.94 | > 5120 nM | 0.915 | > 1000 nM
7 | IST-SL1 (small cell lung carcinoma, semi-adherent) | 0.978 | > 10000 nM | 0.987 | > 5000 nM | 0.956 | > 5120 nM | 0.902 | > 1000 nM
8 | J82 (bladder, adherent) | 0.92 | > 10000 nM | 0.967 | > 5000 nM | 0.628 | 720 nM | 0.944 | > 1000 nM
9 | JAR (urogenital system, adherent) | 0.903 | > 10000 nM | 0.867 | 4340 nM | 0.988 | > 5120 nM | 0.953 | > 1000 nM
10 | JHH-2 (liver, adherent) | 0.89 | > 10000 nM | 0.517 | 350 nM | 0.964 | > 5120 nM | 0.926 | > 1000 nM
11 | JHH-4 (liver, adherent) | 0.903 | > 10000 nM | 0.831 | 3160 nM | 0.864 | 4460 nM | 0.868 | 904 nM
12 | JHH-6 (liver, adherent) | 0.839 | 6970 nM | 0.869 | 4730 nM | 0.919 | > 5120 nM | 0.847 | 752 nM
13 | JHH-7 (liver, adherent) | 0.923 | > 10000 nM | 0.921 | > 5000 nM | 0.963 | > 5120 nM | 0.954 | > 1000 nM
14 | JHOS-4 (ovary, adherent) | 0.814 | 8850 nM | 0.945 | > 5000 nM | – | – | 0.973 | > 1000 nM
15 | JM1 (B-cell lymphoma, suspension) | 0.564 | 910 nM | 0.935 | > 5000 nM | 0.968 | > 5120 nM | 0.831 | 512 nM
16 | JSC-1 (B-cell lymphoma, suspension) | 0.598 | 1160 nM | 0.984 | > 5000 nM | 0.977 | > 5120 nM | 0.865 | 870 nM

Row | Cell Line | AUC (BMN-673) | IC50 (BMN-673) | AUC (AZD6482; [1]) | IC50 (AZD6482; [1]) | AUC (AZD6482; [2]) | IC50 (AZD6482; [2]) | AUC (MLN4924) | IC50 (MLN4924)
17 | JVM-2 (lymphoid neoplasm, suspension) | 0.61 | 1350 nM | 0.748 | 1940 nM | 0.893 | > 5120 nM | 0.761 | 432 nM
18 | JVM-3 (lymphoid neoplasm, suspension) | 0.644 | 1570 nM | 0.869 | 4720 nM | 0.987 | > 5120 nM | 0.677 | 197 nM
19 | JiyoyeP-2003 (Burkitt lymphoma, suspension) | 0.954 | > 10000 nM | 0.984 | > 5000 nM | 0.931 | > 5120 nM | 0.697 | 207 nM
20 | KALS-1 (glioma, adherent) | 0.851 | > 10000 nM | 0.846 | > 5000 nM | 0.748 | 2200 nM | 0.738 | 394 nM
21 | KARPAS-45 (lymphoblastic leukaemia, suspension) | 0.991 | > 10000 nM | 0.712 | 1100 nM | 0.834 | 2580 nM | 0.969 | > 1000 nM
22 | KARPAS-231 (B-cell leukaemia, suspension) | 0.677 | 1710 nM | 0.603 | 558 nM | 0.732 | 1210 nM | 0.97 | > 1000 nM
23 | KARPAS-299 (anaplastic large cell lymphoma, suspension) | 0.811 | 4230 nM | 0.964 | > 5000 nM | 0.992 | > 5120 nM | 0.961 | > 1000 nM
24 | KARPAS-422 (B-cell lymphoma, suspension) | 0.985 | > 10000 nM | 0.653 | 822 nM | 0.69 | 1080 nM | 0.987 | > 1000 nM
25 | KARPAS-620 (haematopoietic neoplasm, suspension) | 0.987 | > 10000 nM | 0.942 | > 5000 nM | 0.814 | 2310 nM | 0.99 | > 1000 nM
26 | KARPAS-1106P (B-cell lymphoma, suspension) | 0.838 | 5130 nM | 0.729 | 1210 nM | – | – | 0.983 | > 1000 nM
27 | KASUMI-1 (acute myeloid leukaemia, suspension) | 0.976 | > 10000 nM | 0.691 | 1080 nM | 0.756 | 1760 nM | 0.714 | 253 nM
28 | KE-37 (lymphoblastic leukaemia, suspension) | 0.871 | 5860 nM | 0.938 | > 5000 nM | 0.958 | > 5120 nM | 0.853 | 511 nM
29 | KLE (endometrium, adherent) | 0.954 | > 10000 nM | 0.782 | 3480 nM | 0.865 | > 5120 nM | 0.966 | > 1000 nM
30 | KM-H2 (Hodgkin lymphoma, suspension) | 0.986 | > 10000 nM | 0.975 | > 5000 nM | 0.973 | > 5120 nM | 0.986 | > 1000 nM
31 | KMOE-2 (acute myeloid leukaemia, suspension) | 0.984 | > 10000 nM | 0.825 | 2570 nM | 0.95 | > 5120 nM | 0.935 | > 1000 nM
